Some of the results follow.

The target in the experiment is T1, OsWOX13 (Oryza sativa, UniProt Q5QMM3 1-267).
T1 sequence: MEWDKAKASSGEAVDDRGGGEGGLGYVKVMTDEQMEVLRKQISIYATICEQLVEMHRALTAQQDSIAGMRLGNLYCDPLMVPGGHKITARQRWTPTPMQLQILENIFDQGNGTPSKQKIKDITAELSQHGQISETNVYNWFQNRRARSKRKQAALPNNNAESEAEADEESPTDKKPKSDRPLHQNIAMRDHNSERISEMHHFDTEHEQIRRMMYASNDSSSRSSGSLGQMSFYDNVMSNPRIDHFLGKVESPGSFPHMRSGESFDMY
Briefly: protein-binding microarray (RPBM); PBS, 2% BSA, 51.3 ng/ul salmon testes DNA, 50 uM zinc acetate, 200 nM TF, 25 C, 1 h; high values mean tight binding. As to conditions: protein: recombinant; tags: N-terminal polyhistidine and DsRed monomer fusion (pET32a); label: CyDye5-dUTP incorporated in the synthesized complementary strand; 3' TTTTT single-stranded linker to array surface; dsDNA, one strand shown. The gist of the method: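 Per-feature fluorescence intensity (arbitrary units), read on an Axon 4000B scanner, is the binding signal. Transcription factors carrying an N-terminal polyhistidine tag and DsRed fusion were expressed in E. coli BL21-CodonPlus and purified on Ni–NTA. A custom Agilent array, made double-stranded by primer extension with Cy5-dUTP and blocked with 2% BSA, was incubated with 200 nM protein in PBS, 2% BSA, salmon testes DNA and 50 µM zinc acetate at 25 °C for 1 h and then washed.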
For the sequence “GTAAATTAGAAGTGATTAGCTTCATTGCTTCATTGCTCCACGGAGTCACCTAGTGCAG”, the binding signal was 45100 fluorescence intensity (a.u.). The value for “TTTAATAAGCGTTAGATTAACTGCAGGCCCCGCCGACCCACGGAGTCACCTAGTGCAG” was 4400 fluorescence intensity (a.u.); that for “TGAAGATGCTGTAATTAACTAATCAAGAAGCAAAATCTTCCGGAGTCACCTAGTGCAG” was 10200 fluorescence intensity (a.u.).

Take “CTGTGATTTAACTTTACAATAGCGAGAATTCAGATTGCATCGGAGTCACCTAGTGCAG”: the binding signal was 22500 fluorescence intensity (a.u.). Next, “GTTGACAGGTTGAGTAGCGTTGCCACTGTTCTATCTTCGTCGGAGTCACCTAGTGCAG”: 18900 fluorescence intensity (a.u.); “ATTTGACAAAATATATTTGGGATGGATGTTTGGTGATGCACGGAGTCACCTAGTGCAG”: 6770 fluorescence intensity (a.u.); “CCATCAAATTGATACTCCCTCCGTTTTATAATGTAAAACTCGGAGTCACCTAGTGCAG”: 14700 fluorescence intensity (a.u.). With “TAATTGATGTAATTTAAATTATTCTTGGTCTTAGTGTATACGGAGTCACCTAGTGCAG”, the binding signal was 54800 fluorescence intensity (a.u.). The value for “TATTAATTGATGCGATTTAAATTATCTTTGGTCTTGATGTCGGAGTCACCTAGTGCAG” was 50000 fluorescence intensity (a.u.). The value for “ACAAATGAAATTTCTGTTGACTTCCAAAATGTTGATCCATCGGAGTCACCTAGTGCAG” was 6240 fluorescence intensity (a.u.); that for “AATAAATCTAAACAATGATATATCCAGATTTGTTATAGTACGGAGTCACCTAGTGCAG” was 4540 fluorescence intensity (a.u.); that for “TTAATTAGGTTTAATAAATTCGTCTCGTGGTTTACTGACGCGGAGTCACCTAGTGCAG” was 19400 fluorescence intensity (a.u.).

As to “AATTTAATTTTAGGTCTAGAATGAAATTTTGAAGTTACCTCGGAGTCACCTAGTGCAG”, the binding signal is 9830 fluorescence intensity (a.u.). Next, “AATAAATCAGTTTAATTTTCGTAGGCTTTGGTAAAATTCTCGGAGTCACCTAGTGCAG”: 8370 fluorescence intensity (a.u.); “TTATTAATTAAGAGGTAACACATACAACATATCACATATACGGAGTCACCTAGTGCAG”: 16700 fluorescence intensity (a.u.). For the sequence “TCAATAAATAATATATTAATGATTCACCTCCTCTTACACACGGAGTCACCTAGTGCAG”, the binding signal is 5780 fluorescence intensity (a.u.). Next, “AAATATAAATCACTTAAAGTATTTTGAGTGATAAAACAACCGGAGTCACCTAGTGCAG”: 3300 fluorescence intensity (a.u.); “CGTTTAATATTTATAATTAGTATCCAAACATTTAATGTGACGGAGTCACCTAGTGCAG”: 13000 fluorescence intensity (a.u.). On to “GCTATGGCTTGATTTGATGTCCTCACCTCCCAGGGAGCATCGGAGTCACCTAGTGCAG”, for which the binding signal was 3570 fluorescence intensity (a.u.).

Turning to “AACCATTTCATTTTGATTTAGACATGGCATCAGAACAACCCGGAGTCACCTAGTGCAG”, the binding signal is 4980 fluorescence intensity (a.u.).

On to “AGAGAATGGTACTTGATTTACAGCAAGGCTTCAGAAAGGCCGGAGTCACCTAGTGCAG”, for which the binding signal is 7240 fluorescence intensity (a.u.).

Turning to “AATAATCTAATAATCTATAATTTTATACTATAGTTATTTTCGGAGTCACCTAGTGCAG”, the binding signal was 3300 fluorescence intensity (a.u.). Next, “AAAATAAACATGTGGGATTAGATATAGGAGCCCACTAGCACGGAGTCACCTAGTGCAG”: 3760 fluorescence intensity (a.u.); “CTGTTAATGGAAACGCCGCGCCCTCTCCTCCTCCCTTCCCCGGAGTCACCTAGTGCAG”: 8830 fluorescence intensity (a.u.); “AACAAATTACAGAATCTGCCTGCAAATTGCGAGACGGATTCGGAGTCACCTAGTGCAG”: 18100 fluorescence intensity (a.u.). Next, “GATAAATTTCTATGTCAGAGTATCCTTTTATCACTATATGCGGAGTCACCTAGTGCAG”: 4250 fluorescence intensity (a.u.); “ATATCTATCTAGATTCATTAACATCAATATAAATGTGGGACGGAGTCACCTAGTGCAG”: 4050 fluorescence intensity (a.u.). The value for “GTTTTCGTGTCCAACGTTTGATTGTTCGTTTTATATGAAACGGAGTCACCTAGTGCAG” was 3230 fluorescence intensity (a.u.); that for “TAGAGTAAATTAAATTAACACTAACAAACAAACAAACACACGGAGTCACCTAGTGCAG” was 24900 fluorescence intensity (a.u.). Regarding “TCAACAGAGCATATCAATTGATTTTCTCTGAACTGCTCTCCGGAGTCACCTAGTGCAG”, the binding signal is 4240 fluorescence intensity (a.u.). Next, “TTGATAGATAAATACAGTGGGCAGCGTACAAGTTGACATACGGAGTCACCTAGTGCAG”: 14800 fluorescence intensity (a.u.); “GGGATTGAGATTTTATACATGGAGCCACTGCGAGTTGTACCGGAGTCACCTAGTGCAG”: 11800 fluorescence intensity (a.u.); “GCTAACATACATTGAAATTAAAGAAGCGGTTGAGAGAGAGCGGAGTCACCTAGTGCAG”: 4290 fluorescence intensity (a.u.).

With “TCGAATTAACTGAGCAGAAAACATGTCCAATTGTGATGCACGGAGTCACCTAGTGCAG”, the binding signal is 7860 fluorescence intensity (a.u.).

For “TATGATTAAACCGAAGCTCATCTGTGGCCCATTACTGCCCCGGAGTCACCTAGTGCAG”, the binding signal is 24800 fluorescence intensity (a.u.). Next, “TGTGACAGAATGAGAAAGCAATTGTTGTCTTGGATGGTTGCGGAGTCACCTAGTGCAG”: 10500 fluorescence intensity (a.u.); “AATTGGTTGATTGATTCCACCATCCTAGGCTGTGTTTAATCGGAGTCACCTAGTGCAG”: 29900 fluorescence intensity (a.u.); “AGTGTAACACTTAATTGAATTCAATCTCCAACTTGACTGTCGGAGTCACCTAGTGCAG”: 30500 fluorescence intensity (a.u.). The value for “ATTGGAGCTATCAATTAGCCATGTCATGTGTAGGTGCGTTCGGAGTCACCTAGTGCAG” was 13800 fluorescence intensity (a.u.).

Regarding “ACCAAAATTGGTATGGTTTATATCACTTGAACCATAATAGCGGAGTCACCTAGTGCAG”, the binding signal is 3860 fluorescence intensity (a.u.). The value for “GCATTTCTGACATGATTTTCCCTAATCTATTTACAGGAGGCGGAGTCACCTAGTGCAG” was 10300 fluorescence intensity (a.u.); that for “GTACCCATACCCATATAATTGACTTGTAGAATTTATAGTTCGGAGTCACCTAGTGCAG” was 4950 fluorescence intensity (a.u.).

Source of the values: article PMC7819943, “Rice protein-binding microarrays: a tool to detect cis-acting elements near promoter regions in rice”.
